Experimental data as given in the supplement of paper PMC11348887.
Where a name gives a salt, the structure may show the parent alone. The list shows a part of the results. Rule as the data show it: active = -2 or less and inactive = the rest. Most values come without repeats; read them as rough.

test system: hPSC-derived cortical neurons (WA09); assay: nuclei number (viability) z-score; higher = more surviving cells; details: 5 µM; treatment: days 7-14 after plating, readout day 21
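Also: nuclei counted from DAPI counterstain by automated high-content image analysis, four fields per well at ×20 in 384-well plates, with sequential b-score then z-score normalization.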

Compound | nuclei number (z-score)
CC(C)(Oc1ccc(C2CC2(Cl)Cl)cc1)C(=O)O (stereo not drawn) [Ciprofibrate] | inactive: 0.666
CC(C)C[C@H](NC(=O)c1cc2ccccc2s1)C(=O)N1CCN(C(=O)[C@H](CO)NS(=O)(=O)c2ccc(Cl)cc2Cl)CC1 | inactive: 0.207
CC(C)[C@H](NC(=O)c1ccc2ccccc2n1)C(=O)N[C@@H](CC(=O)O)C(=O)COc1c(F)cccc1F | inactive: 0.35
C=CCN1CCCC1CNC(=O)c1cc2nn[nH]c2cc1OC (stereo not drawn) [Alizapride HCl] | inactive: 0.682
Nc1nc(Nc2ccc(S(N)(=O)=O)cc2)nn1C(=O)c1c(F)cccc1F | inactive: -0.81
CO[C@@H](C)Cn1c(=O)n(C)c2cnc3ccc(-c4cncc(C(C)(C)O)c4)cc3c21 | active: -3.99
CC(C)c1onc(-c2c(Cl)cccc2Cl)c1COc1ccc(/C=C/c2cccc(C(=O)O)c2)c(Cl)c1 | inactive: 8.01
NC(=O)CCCSc1nc(N)nc(-c2c(Cl)cc3c4c(cccc24)COC3)n1 | active: -7
N#CC(=C(/N)Sc1ccccc1N)/C(C#N)=C(\N)Sc1ccccc1N | inactive: -0.364
COc1ccc(CNCc2cccc3ccccc23)cc1 | inactive: 0.877
NC(=O)[C@@H](CCC(F)(F)F)N(Cc1ccc(-c2ncon2)cc1F)S(=O)(=O)c1ccc(Cl)cc1 | inactive: 0.346
Cc1[nH]c(/C=C2\C(=O)Nc3ccc(S(=O)(=O)Cc4c(Cl)cccc4Cl)cc32)c(C)c1C(=O)N1CCC[C@@H]1CN1CCCC1 | active: -4.56
Cc1c(Cn2c(C)nc3c(C(=O)O)cc(N4CCOCC4)cc32)cccc1C(F)(F)F | inactive: 0.452
O=C(NCc1ccc(Oc2ccccc2)cc1)c1nc(-c2cc(Br)c(O)c(Br)c2)no1 | inactive: 0.0238
CCCCCCCCCCCCCCCC[N+](C)(C)C [Cetrimonium Bromide (CTAB)] | active: -7.92
S=c1nc[nH]c2nc[nH]c12 [6-Mercaptopurine (6-MP) Monohydrate] | inactive: -0.0883
Nc1nccs1 [Aminothiazole] | inactive: -0.675
NC(=O)c1cccnc1 [Nicotinamide (Vitamin B3)] | inactive: 1.77
CCCc1nc(C(C)(C)O)c(C(=O)OCc2oc(=O)oc2C)n1Cc1ccc(-c2ccccc2-c2nnn[nH]2)cc1 [Olmesartan Medoxomil] | inactive: 0.618
Cn1c(=O)c2c(ncn2CC(O)CO)n(C)c1=O (stereo not drawn) [Dyphylline] | inactive: -0.191
NCc1c[nH]c(=S)n1[C@H]1CCc2c(F)cc(F)cc2C1 [Nepicastat (SYN-117) HCl] | inactive: 0.635
O=C(O)CCc1nc2ccccc2[nH]1 [Procodazole] | inactive: 0.57
COc1ccc(-c2cc3c(C)nc(N)nc3n([C@H]3CC[C@H](OCCO)CC3)c2=O)cn1 | inactive: -0.257
Cn1c(=O)c(F)c(Nc2ccc(I)cc2F)c2c(=O)n(C[C@@H](O)CO)cnc21 | active: -7.87
COc1ccc(/C=C/C(=O)C2(C(=O)/C=C/c3ccc(OC)c(OC)c3)CCCCC2)cc1OC | inactive: 0.0225

Compound | nuclei number (z-score)
CCC(C)(C)c1ccc(CC(C)CN2C[C@@H](C)O[C@@H](C)C2)cc1 (stereo partly drawn) [Amorolfine HCl] | active: -5.24
CC(C)N(CCC(=O)c1ccc2ccccc2c1)Cc1ccccc1 | active: -5.42
CC(C)(C)C#Cc1cc(N(C(=O)[C@H]2CC[C@H](C)CC2)[C@H]2CC[C@H](O)CC2)c(C(=O)O)s1 [VX-222 (VCH-222_ Lomibuvir)] | inactive: -0.0943
CCOC(=O)c1ccc(C#Cc2ccc3c(c2)C(C)(C)CCS3)nc1 [Tazarotene] | inactive: 0.868
CCCOc1ccc(CCc2nc3cc(-c4c(C)noc4C)ccc3n2CCN2CCOCC2)cc1 | inactive: -0.17
CCCNS(=O)(=O)Nc1ncnc(OCCOc2ncc(Br)cn2)c1-c1ccc(Br)cc1 [Macitentan] | inactive: 0.408
Nc1ccc(S(N)(=O)=O)cc1 [Sulfanilamide] | inactive: -0.17
CCN1CCC[C@H]1CNC(=O)c1cc(S(N)(=O)=O)ccc1OC [Levosulpiride] | inactive: -0.298
Cc1ccc(NC(=S)NNc2c([N+](=O)[O-])cc(C(F)(F)F)cc2[N+](=O)[O-])cc1Cl | inactive: -0.615
CCOc1nc2cccc(C(=O)OC(C)OC(=O)OC3CCCCC3)c2n1Cc1ccc(-c2ccccc2-c2nn[nH]n2)cc1 (stereo not drawn) [Candesartan Cilexetil] | inactive: 0.589
O=C(CCN1CCN(C(=O)OCc2cc(Cl)cc(Cl)c2)CC1)c1ccc2[nH]c(=O)oc2c1 | inactive: 0.45
CN(C)CCC(c1ccccc1)c1ccccn1 (stereo not drawn) [Pheniramine Maleate] | inactive: -1.12
Cc1cccc(Nc2nc(-c3ccncc3)cs2)c1 | inactive: -0.12
Nc1ccn([C@@H]2O[C@H](CO)[C@@H](O)[C@H]2O)c(=O)n1 [Cytidine] | inactive: -0.445
CC(C)NCCCn1c(Sc2cc3c(cc2I)OCO3)nc2c(N)ncnc21 | active: -4.41
Cc1c(O)cccc1C(=O)N[C@@H](CSc1ccccc1)[C@H](O)CN1C[C@H]2CCCC[C@H]2C[C@H]1C(=O)NC(C)(C)C [Nelfinavir Mesylate] | inactive: -0.0367
O[C@@H]1CO[C@H]2[C@@H]1OC[C@@H]2O [Isosorbide] | inactive: -0.319
O=c1cc(CN2CCOCC2)occ1OCCCCCSc1ccnc2cc(C(F)(F)F)ccc12 | inactive: 0.566
CN(C)CCN1C(=O)c2cccc3cc(N)cc(c23)C1=O [Amonafide] | active: -2.28
CCOc1ccc(Cc2cc([C@@H]3O[C@H](CO)[C@@H](O)[C@H](O)[C@H]3O)ccc2Cl)cc1 [Dapagliflozin] | inactive: 0.00793
O=C(O)c1cc(=O)c2c(OCC(O)COc3cccc4oc(C(=O)O)cc(=O)c34)cccc2o1 [Disodium Cromoglycate] | inactive: 0.662
CCN1/C(=C/C(C)=O)Sc2ccc(OC)cc21 | inactive: 0.577
Nc1nc(=O)c2c([nH]1)NCC(CNc1ccc(C(=O)N[C@@H](CCC(=O)O)C(=O)O)cc1)N2C=O (stereo partly drawn) [Leucovorin Calcium Pentahydrate] | inactive: 0.565
CCCCC(C=O)NC(=O)C(CC(C)C)NC(=O)C(CC(C)C)NC(C)=O (stereo not drawn) | active: -5.07
CCCCCCCCCCCCCCCCO [1-Hexadecanol] | inactive: 1.64

Compound | nuclei number (z-score)
Cc1ccc(O)c([C@H](CCN(C(C)C)C(C)C)c2ccccc2)c1 [Tolterodine tartrate] | inactive: 0.0262
Cc1cc(C)cc(NC(=O)Cc2ccc(OC(C)(C)C(=O)O)cc2)c1 [Efaproxiral Sodium] | inactive: -0.382
CCCCOc1ccc(CC(=O)NO)cc1 [Bufexamac] | inactive: -0.169
NC[C@H]1CC[C@H](C(=O)O)CC1 [Tranexamic Acid] | inactive: -0.121
Oc1c(Cl)cc(Cl)cc1Sc1cc(Cl)cc(Cl)c1O [Bithionol] | inactive: 0.223
CO[C@H]1C(=O)[C@]2(C)[C@@H](OC)C[C@H]3OC[C@@]3(OC(C)=O)[C@H]2[C@H](OC(=O)c2ccccc2)[C@]2(O)C[C@H](OC(=O)[C@H](O)[C@@H](NC(=O)OC(C)(C)C)c3ccccc3)C(C)=C1C2(C)C [Cabazitaxel] | inactive: -0.0465
CCCC(C(=O)OCCN(CC)CC)(c1ccccc1)c1ccccc1 [Proadifen HCl] | inactive: -1
CN1CCC[C@H]1c1cccnc1 [Nicotine Ditartrate] | inactive: 0.243
O=S(=O)(O)CCSSCCS(=O)(=O)O [Dimesna] | inactive: 0.709
CC(C)(C)c1ccc(S(=O)(=O)NCc2ccc(C(=O)Nc3cccnc3)cc2)cc1 | inactive: 4.85
Clc1ccccc1C(c1ccccc1)(c1ccccc1)n1ccnc1 [Clotrimazole] | inactive: -0.175
NC(=O)NO [Hydroxyurea] | inactive: 0.0804
Clc1ccc(COC(Cn2ccnc2)c2ccc(Cl)cc2Cl)cc1 (stereo not drawn) [Econazole nitrate] | active: -2.38
CC(CCc1ccc(O)cc1)NCC(O)c1ccc(O)cc1 (stereo not drawn) [Ractopamine HCl] | inactive: -0.107
COc1cc2c(cc1OC)CN(CCc1ccc(NC(=O)c3cccc4c(=O)c5cccc(OC)c5[nH]c34)cc1)CC2 | active: -5.39
Cc1c(C)c2c(c(C)c1O)CC[C@@](C)(CCC[C@H](C)CCC[C@H](C)CCCC(C)C)O2 [Vitamin E] | inactive: 0.356
CCN(CCCc1ccccc1)CCCc1ccccc1 [Alverine Citrate] | inactive: -1.45
Cc1cccc(Oc2cnc(=O)[nH]c2)c1 | inactive: 0.093
CCc1cc(/C(C)=N/OCc2ccc(C3CCCCC3)c(C(F)(F)F)c2)ccc1CN1CC(C(=O)O)C1 [BAF312 (Siponimod)] | inactive: 0.77
Cc1cc(CS(=O)(=O)c2ccccc2)cc(OCc2ccc(CN3CCC[C@@H]3CO)cc2)c1 | inactive: -0.267
CC[C@]1(O)C[C@@H]2CN(CCc3c([nH]c4ccccc34)[C@@](C(=O)OC)(c3cc4c(cc3OC)N(C)[C@H]3[C@@](O)(C(=O)OC)[C@H](OC(C)=O)[C@]5(CC)C=CCN6CC[C@]43[C@@H]65)C2)C1 [Vinblastine sulfate] | active: -7.23
Cn1cnc(N)c2ncnc1-2 [3-Methyladenine] | inactive: -0.055
O=C(O)c1cc(O)c(O)c(O)c1 [Gallic acid] | inactive: 1.16
